Here are results for 89 sequences from the supplement of paper PMC11417369.

± gives the standard deviation of the averaged measurements. The list shows a part of the results.

The test relates to PfAP2-G AP2 domain (GST-tagged). Nature of the test: gcPBM binding intensity (ln(normalized median fluorescence intensity)); higher = stronger DNA binding. The method, boiled down: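 Binding intensity is the highest Masliner-normalised natural-log median intensity over replicate spots in either probe orientation. To obtain it, GST-tagged P. falciparum DNA-binding domains made in E. coli were incubated for 1 h on an Agilent 4 × 180k array of primer-extended double-stranded 36-bp intergenic genomic probes plus negative controls. Detection used Alexa488 anti-GST antibody with scanning at 488 nm.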
For the sequence “AAATGAAAAATAAGGAAAAAAAAAAAAAAAAAAAAA [CACACA_negctrl_site1715]”, the “gcPBM binding intensity (ln)” value worked out at 9.64 ± 0.45.
For “TAAAATATTTCAAAGGTGCAATGATAATTTAAGACG [GTGCAC_site9609]” the value was 10.07 ± 0.099.
Then “ATATTGACAGGAAAAATTTTCTTTGAATCTTTAAAA [CACACA_negctrl_site1191]”, with 9.755 ± 0.035; and “TATGTTATATTGGACACACACAATAAACATTATGTA [CACACA_site1657]”, with 10.7 ± 0.59.
Take “ATATATATATATAAGCGTACGCGTAGTTAAATTAAT [XGTACX_site7693]”: the “gcPBM binding intensity (ln)” value is 11.6 ± 0.77.
For “ACAAAAAAAATAAGCACACATATATATATATATATA [CACACA_site816]” the value was 10.1 ± 0.34; for “TACATGATAAGATGTAGTACATAAAAGAATAAATTA [XGTACX_site787]”, 11.5 ± 1.
On to “TTTTCAAAAATATATACACACATGCATATTACGGTG [CACACA_site775]”, for which the “gcPBM binding intensity (ln)” value was 10.05 ± 0.014.
Then “TATTCAATACTTAATGCACACAATAAAAAAAATATG [CACACA_site2467]”, with 10.4 ± 0.45.
Consider “ACGATAACATTTTTACGTACATATATTTTCACGGAG [XGTACX_site8764]”, for which the “gcPBM binding intensity (ln)” value is 11.4 ± 0.88.
Then “TTATTCATTTCGAAAAGTACAAATTCTGTTTATTAT [XGTACX_site6892]”, with 11.1 ± 0.71; and “GAAATAATTTTTATTTGTACACACATACATATATAT [XGTACX_site1862]”, with 11 ± 0.6; and “AAATTTTATAAAGGAACACACATTTTTTTTTTTTCT [CACACA_site2368]”, with 9.86 ± 0.085.
Regarding “CCACTAATTATGTGCACACAAATTAAAGGTCTACAA [CACACA_site4259]”, the “gcPBM binding intensity (ln)” value amounted to 10.7 ± 0.45.
For AAAAAAAAAAAATACGTGCACTATGATATATTATAT the value was 10.4 ± 0.4.
With “TTCACTCCATATTATACACACACACTAATGAAAAAA [CACACA_site8991]”, the “gcPBM binding intensity (ln)” value is 10.3 ± 0.38.
For “AAAAAAAAAAAAAGTACACACATACATATAAATATA [CACACA_site8533]” the value was 11.5 ± 0.86.
Regarding “TTTTGTCGGAAATCGGATAAGAAGAAAAAAAATAAT [GTGCAC_negctrl_site594]”, the “gcPBM binding intensity (ln)” value is 10.2 ± 0.26.
Then “ATAATATTTATAAATTGTACTAATGTTCAATAATTA [XGTACX_site7284]”, with 10.9 ± 0.77; and “ATAATAAAAATAAAATGTACATACATAAATATATAT [XGTACX_site6228]”, with 11.1 ± 0.53.
Then “TATCGTTTTATTCGGTTGCACCAAAAAAATAAAATA [GTGCAC_site9408]”, with 10.3 ± 0.45; and “AAATATATATAAGCGTGTACACATTCTGAGTGTTGT [XGTACX_site1088]”, with 11.7 ± 1.1.
For ATATATATATAATAAGTGCAAAAATAATGACCTATA the value was 10.3 ± 0.23.
On to “AGCTATAATAAATATACACACATATATAAATATGTA [CACACA_site6583]”, for which the “gcPBM binding intensity (ln)” value turned out to be 9.715 ± 0.021.
Then “AAAAAAAATTAAAATAAAATATAAATATAAAATATA [GTGCAC_negctrl_site714]”, with 9.395 ± 0.078; and “TATATATTTTTATGCACACACAAAGAAAATTTTCCT [CACACA_site2863]”, with 10.3 ± 0.18; and “AATTTATATTAAAATTGTACATTTCTTCTATAATAC [XGTACX_site8639]”, with 10.8 ± 0.34.
Then “AATATATTTAATGAGTGTACATTATTTATTATTATT [XGTACX_site6889]”, with 11.2 ± 0.69; and “AAATAAAAAAAATAAAAGCAATCATAATAAAAATCT [CACACA_negctrl_site161]”, with 9.73 ± 0.13; and “TGTATGTATTTGTGTAGTACGCATAAGTAATAAAAC [XGTACX_site6704]”, with 11.5 ± 0.94.
For the sequence “TCCCATATATATATATATATATATATATATAATAAT [TGCATGCA_negctrl_site41]”, the “gcPBM binding intensity (ln)” value worked out at 9.63 ± 0.11.
On to “TACCAAAAGAAACACACACACAAAATATATAAATAT [CACACA_site1869]”, for which the “gcPBM binding intensity (ln)” value stood at 10 ± 0.099.
On to “ATACTTTTAATATGCACATGCAAATATGAAATATCG [TGCATGCA_site603]”, for which the “gcPBM binding intensity (ln)” value was 9.96 ± 0.16.
Then “TTTGGCTAGTCAAGTTGTACAAAAAAAAAAAAAAAA [XGTACX_site8382]”, with 11.2 ± 1.1; and “ATTTAATTTTCATGATGTACTATAGTTTAATGCACA [XGTACX_site1624]”, with 10.8 ± 0.4; and “TAATAATCAAACTATACACACATAAATAGATATATA [CACACA_site6220]”, with 9.835 ± 0.021.
For “TGTAAATATAAATGTAATAAATATGTAAAAATAAAT [XGTACX_negctrl_site171]” the value was 9.79 ± 0.13; for “TATTTTCAAAAATATACACACACATAAATATATGTA [CACACA_site8160]”, 9.92 ± 0.11.
Regarding “GGTAATAAACAATGAAGTACGTAAAGGTAAAATATT [XGTACX_site2647]”, the “gcPBM binding intensity (ln)” value was 11.3 ± 0.59.
For the sequence “TTATTAGGTATATATGCACACAATACCCAAAACAAC [CACACA_site4221]”, the “gcPBM binding intensity (ln)” value amounted to 10.6 ± 0.48.
As for “TATCATTTTTTTAAAACACACATAATAATATAAATA [CACACA_site2845]”, the “gcPBM binding intensity (ln)” value turned out to be 10 ± 0.16.
For “TAAATTTTATAAATCTGTACATATGAGCAAGAACAT [XGTACX_site7400]”, the “gcPBM binding intensity (ln)” value was found to be 11.1 ± 0.69.
For “ATTATGCACCAACACACACACACACCCCTAAAAAAT [CACACA_site2568]” the value was 10.5 ± 0.53.
For “CACTTCAAAAAAATATGTACACATATATATATATAT [XGTACX_site3075]”, the “gcPBM binding intensity (ln)” value came to 11.4 ± 0.86.
For “TTATATGTATTTCTTTGTACACATTTTTATATATAT [XGTACX_site1462]” the value was 11.5 ± 0.91; for “TATATTTGAAATATATGTACTTATAATACAGTTTAA [XGTACX_site8039]”, 11.2 ± 0.93; for “TAAAGAGTTACCATTTGTACTTACGCACACATAAAA [XGTACX_site3145]”, 11.2 ± 0.83.
As to “TTTTTATGTTATCAAATAAATATAAATATAATTCAT [CACACA_negctrl_site1522]”, the “gcPBM binding intensity (ln)” value came to 9.655 ± 0.064.
Consider “ATGTATACAAATATATGTACGTATGTTCTCTTCTTT [XGTACX_site7865]”, for which the “gcPBM binding intensity (ln)” value came to 11.2 ± 0.81.
For “TTCCTTCAAAATTTAAGTAATAAGATAAAAATATAA [CACACA_negctrl_site1696]” the value was 9.645 ± 0.064; for “CACAGATAAATTAACACACACACACGGATATTTATA [CACACA_site7788]”, 10.09 ± 0.078; for “TATTAATACAGACACACACACACACTAATTAAAATA [CACACA_site7967]”, 10.2 ± 0.2.
Then “ATTTACCCTTGCCATGCACACTTTTTTATAGAAAAT [CACACA_site5857]”, with 10.4 ± 0.28; and “AATATATAATTAATTGCACACCTTGTCACGCCAAAA [CACACA_site1174]”, with 10.2 ± 0.15.
For “TAAATATATAAACACACACACATTAATACAGATATT [CACACA_site5851]” the value was 10.045 ± 0.007; for “AAAATTATAAAATGGGCACACATGAAGATTGTAGTA [CACACA_site2226]”, 10.5 ± 0.27.
As for “GAATGAATACGTTTTACACACTTGAATATAATTTCA [CACACA_site989]”, the “gcPBM binding intensity (ln)” value was determined as 10.2 ± 0.12.
For “ATATATAAATTTAATACACACCCAAAAAAAAAAAAA [CACACA_site7719]” the value was 10.1 ± 0.5.
For “TTATTTATTTTTTCATGTACTTAAATATATTAATGT [XGTACX_site5804]” the value was 11.2 ± 0.69.
Consider “TGAAAATATTTTATATGTACATATATTATCAATACA [XGTACX_site92]”, for which the “gcPBM binding intensity (ln)” value was 11.2 ± 0.61.
Then “TAGAATAATCTATAAACACACAAACCCAACAAAAGA [CACACA_site6132]”, with 10.4 ± 0.39; and “ATCTATATTTTTATAACACACAATGATGTACATTAC [CACACA_site6633]”, with 11.2 ± 0.86; and “TGTGTGGATATATGTATGCACTACCCTTTGGGTCAT [GTGCAC_site9506]”, with 10.3 ± 0.2.
For “AAATATTAAATGGAAAACAAATATATATATCTTAAT [XGTACX_negctrl_site383]” the value was 9.72 ± 0.13; for “ATATATTGAACCTATGCATGTAAAATATATGTAATA [TGCATGCA_site644]”, 9.805 ± 0.007.
For “AAAAAAGAAATAATCAAATAAATAAAAAAGATGAAT [XGTACX_negctrl_site607]” the value was 9.7 ± 0.16; for “GTGTGAAGATATAAATGCATTTTTTTATACATTTTC [CACACA_negctrl_site117]”, 9.59 ± 0.23; for “ATATATATATATAGGAGTACATGAAATACTTAAAAA [XGTACX_site8851]”, 11.5 ± 0.93.
Regarding “AATATTATATAATAAAGTACATATATATTCATATTT [XGTACX_site7204]”, the “gcPBM binding intensity (ln)” value was 11 ± 0.69.
Regarding “TGTAAGTATTCTTGAGGTACACATATAAATATAGTA [XGTACX_site3207]”, the “gcPBM binding intensity (ln)” value was determined as 11.4 ± 0.79.
Consider “ATTATATATACAACAAGTACAAAAGAAAAATATTAT [XGTACX_site2914]”, for which the “gcPBM binding intensity (ln)” value amounted to 11.2 ± 0.52.
In the case of “TTTGTAAAAGGTCATACACACATATTCAAAAGAAGT [CACACA_site2947]”, the “gcPBM binding intensity (ln)” value was 10.4 ± 0.22.
For “GACATTAATTATTTGACACACGACTGGGTGGTGATT [CACACA_site306]” the value was 10.09 ± 0.021; for “TGATTCAATTTATGCACACTAAAAATTAATTATATT [CACACA_site271]”, 10.1 ± 0.13; for “TTTTTTTTTTATACATGTACTTAAAAGTAGCACCTT [XGTACX_site1855]”, 11.2 ± 0.8.
For “TATAAATACATCCTATACTTCTCTTTTACAGTTTTA [CACACA_negctrl_site1283]” the value was 9.89 ± 0.29; for “ATATTGTTATATGTTTGTACATATTTTTTATATTTT [XGTACX_site6834]”, 11 ± 0.7.
For “AATGTTAAAAATGAAAGTACATGGAATTTATTATTT [XGTACX_site4095]” the value was 11 ± 0.56; for “ATATATATATATAATTGTACATTTTTAACCTTAACA [XGTACX_site7910]”, 10.8 ± 0.54; for “TTTTATGTTTTTTTTATAAATATTAAAATTCTATAT [CACACA_negctrl_site1477]”, 9.62 ± 0.028.
For “GTTTATATATGCTTATAATTTTCAATTGTTTTACAA [TGCATGCA_negctrl_site384]”, the “gcPBM binding intensity (ln)” value is 9.805 ± 0.007.
On to “AAAAAAAAAAAATACACACACACATATAAATATGTA [CACACA_site6900]”, for which the “gcPBM binding intensity (ln)” value turned out to be 9.665 ± 0.092.
For “TATTTTTGAAGTTGCACACACAAAAATAAAAAGTAT [CACACA_site418]” the value was 10.3 ± 0.35.
Then “TACAAACAATTAAACAAACACACATATACATGTATA [CACACA_site2061]”, with 9.75 ± 0.18; and GGTATTTATGGACGCGTGCACACACATATGAACAAA, with 11.4 ± 0.85; and “TTTTGATTTTTTTATTGTACCCATAAACATATAATT [XGTACX_site5202]”, with 11.5 ± 0.99.
As to “AGCTATTAATTTATTACATGCAAGATTAAAAGACTA [TGCATGCA_site281]”, the “gcPBM binding intensity (ln)” value is 9.62 ± 0.085.
For ATATTTACTCACGTCTTGCACTGAGCAAGCATTATA the value was 10.1 ± 0.11.
For “TCATGTTTTTAATATTGTACTCTCATTTTATATATC [XGTACX_site8412]” the value was 11.2 ± 0.98.
